Laboratory results published in the supplement of paper PMC8948288.
The sequences are guide strands of siRNAs; only the seed at positions 2 to 7 varies.

What was measured:
GL261 = test: cell viability relative to siNT1 (ATP content); H4 human neuroglioma and GL261 mouse glioma; higher = less toxic; conditions: siRNA concentration 25 nM; 96 h; mouse
Protocol: (§1)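 Arrayed screen of all 4096 6mer seeds. Each seed sits at guide-strand positions 2-7 of a neutral 19mer siRNA backbone (siNT1-based, passenger strand 2'-O-methyl modified at positions 1-2 to block RISC loading, 3' DNA overhangs). The guide strand is built here as U + seed + ACAUGUAAACCA. Cells were reverse transfected in triplicate in 384-well plates (H4 at 10 nM, GL261 at 25 nM) with Lipofectamine RNAiMAX. Viability was read as ATP content (CellTiter-Glo) 96 h after transfection and normalised to siNT1 (%).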

H4 = test: as above; conditions: siRNA concentration 10 nM; 96 h; human
Protocol: as §1
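Further: cells reverse transfected with siRNA duplexes via lipid reagent, ATP read by luminescence, triplicate wells, values scaled to mean viability with non-targeting control siNT1.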

Sequence | cell viability (GL261) [%] | cell viability (H4) [%]
UCAGUGCACAUGUAAACCA | 32.6 | 71.2
UCAGUGGACAUGUAAACCA | 23.2 | 29.3
UCAGUGUACAUGUAAACCA | 38.6 | 103
UCAGUUAACAUGUAAACCA | 65.9 | 80.4
UCAGUUCACAUGUAAACCA | 34.3 | 76.4
UCAGUUGACAUGUAAACCA | 59.6 | 77.4
UCAGUUUACAUGUAAACCA | 48.3 | 93.4
UCAUAAAACAUGUAAACCA | 38.8 | 104
UCAUAACACAUGUAAACCA | 27.3 | 72.3
UCAUAAGACAUGUAAACCA | 39.3 | 111
UCAUAAUACAUGUAAACCA | 41.3 | 85
UCAUACAACAUGUAAACCA | 36.5 | 114
UCAUACCACAUGUAAACCA | 23.9 | 63.2
UCAUACGACAUGUAAACCA | 30.6 | 83.4
UCAUACUACAUGUAAACCA | 23.2 | 79.4
UCAUAGAACAUGUAAACCA | 41 | 98.2
UCAUAGCACAUGUAAACCA | 13.5 | 21.2
UCAUAGGACAUGUAAACCA | 15.2 | 71.1
UCAUAGUACAUGUAAACCA | 38.8 | 69
UCAUAUAACAUGUAAACCA | 36.6 | 99.9
UCAUAUCACAUGUAAACCA | 37.5 | 113
UCAUAUGACAUGUAAACCA | 51.3 | 82.6
UCAUAUUACAUGUAAACCA | 23.3 | 80.4

Sequence | cell viability (GL261) [%] | cell viability (H4) [%]
UCAUCAAACAUGUAAACCA | 54.1 | 91.7
UCAUCACACAUGUAAACCA | 50.5 | 86.8
UCAUCAGACAUGUAAACCA | 41.5 | 83.9
UCAUCAUACAUGUAAACCA | 50.2 | 88.1
UCAUCCAACAUGUAAACCA | 39.1 | 96.4
UCAUCCCACAUGUAAACCA | 7.19 | 56.4
UCAUCCGACAUGUAAACCA | 40.1 | 73.4
UCAUCCUACAUGUAAACCA | 22 | 72.4
UCAUCGAACAUGUAAACCA | 48.2 | 87.9
UCAUCGCACAUGUAAACCA | 18.4 | 89.4
UCAUCGGACAUGUAAACCA | 28.9 | 56.3
UCAUCGUACAUGUAAACCA | 11.3 | 111
UCAUCUAACAUGUAAACCA | 43.2 | 118
UCAUCUCACAUGUAAACCA | 17.8 | 70.6
UCAUCUGACAUGUAAACCA | 54.6 | 79.4
UCAUCUUACAUGUAAACCA | 35.6 | 97.9
UCAUGAAACAUGUAAACCA | 46.2 | 117
UCAUGACACAUGUAAACCA | 9.34 | 61.4
UCAUGAGACAUGUAAACCA | 79.8 | 96.1
UCAUGAUACAUGUAAACCA | 31.9 | 75.6
UCAUGCAACAUGUAAACCA | 75 | 75.9
UCAUGCCACAUGUAAACCA | 12.4 | 21.2
UCAUGCGACAUGUAAACCA | 29.2 | 78.1

Sequence | cell viability (GL261) [%] | cell viability (H4) [%]
UCAUGCUACAUGUAAACCA | 14.4 | 10.8
UCAUGGAACAUGUAAACCA | 54.2 | 57.4
UCAUGGCACAUGUAAACCA | 8.83 | 37.1
UCAUGGGACAUGUAAACCA | 28.5 | 56.4
UCAUGGUACAUGUAAACCA | 23.2 | 58
UCAUGUAACAUGUAAACCA | 51.8 | 119
UCAUGUCACAUGUAAACCA | 18.8 | 87.9
UCAUGUGACAUGUAAACCA | 66.9 | 107
UCAUGUUACAUGUAAACCA | 54.5 | 59.5
UCAUUAAACAUGUAAACCA | 39.1 | 96
UCAUUACACAUGUAAACCA | 25.2 | 51.4
UCAUUAGACAUGUAAACCA | 36.3 | 70.3
UCAUUAUACAUGUAAACCA | 37.5 | 78.1
UCAUUCAACAUGUAAACCA | 37.2 | 70.5
UCAUUCCACAUGUAAACCA | 26 | 53.2
UCAUUCGACAUGUAAACCA | 32.6 | 82.8
UCAUUCUACAUGUAAACCA | 26.8 | 80.9
UCAUUGAACAUGUAAACCA | 37.6 | 70.3
UCAUUGCACAUGUAAACCA | 18.9 | 51.3
UCAUUGGACAUGUAAACCA | 32.2 | 49.3
UCAUUGUACAUGUAAACCA | 16.5 | 73.9
UCAUUUAACAUGUAAACCA | 42.1 | 113
UCAUUUCACAUGUAAACCA | 41.5 | 75.1

Sequence | cell viability (GL261) [%] | cell viability (H4) [%]
UCAUUUGACAUGUAAACCA | 37.7 | 73.6
UCAUUUUACAUGUAAACCA | 27.3 | 85.4
UCCAAAAACAUGUAAACCA | 55.9 | 81.7
UCCAAACACAUGUAAACCA | 47.4 | 65.7
UCCAAAGACAUGUAAACCA | 58.1 | 86.7
UCCAAAUACAUGUAAACCA | 54.9 | 92.2
UCCAACAACAUGUAAACCA | 68.3 | 67.2
UCCAACCACAUGUAAACCA | 19.5 | 5.77
UCCAACGACAUGUAAACCA | 69.2 | 93.9
UCCAACUACAUGUAAACCA | 31 | 24.3
UCCAAGAACAUGUAAACCA | 52 | 54.8
UCCAAGCACAUGUAAACCA | 6.06 | 14.2
UCCAAGGACAUGUAAACCA | 39.1 | 35
UCCAAGUACAUGUAAACCA | 31.2 | 52.9
UCCAAUAACAUGUAAACCA | 47 | 95.3
UCCAAUCACAUGUAAACCA | 30.6 | 49
UCCAAUGACAUGUAAACCA | 51.7 | 61.9
UCCAAUUACAUGUAAACCA | 69.6 | 94.1
UCCACAAACAUGUAAACCA | 34.3 | 66.3
UCCACACACAUGUAAACCA | 32.7 | 80.8
UCCACAGACAUGUAAACCA | 26.2 | 93.7
UCCACAUACAUGUAAACCA | 36.6 | 93
UCCACCAACAUGUAAACCA | 25.9 | 96.2

Sequence | cell viability (GL261) [%] | cell viability (H4) [%]
UCCACCCACAUGUAAACCA | 17 | 59.4
UCCACCGACAUGUAAACCA | 36.2 | 65.7
UCCACCUACAUGUAAACCA | 29.1 | 47.6
UCCACGAACAUGUAAACCA | 43.5 | 95.2
UCCACGCACAUGUAAACCA | 21.3 | 40.8
UCCACGGACAUGUAAACCA | 38.5 | 50.9
UCCACGUACAUGUAAACCA | 43.7 | 75.9
UCCACUAACAUGUAAACCA | 48.7 | 98.1
UCCACUCACAUGUAAACCA | 32.5 | 62.1
UCCACUGACAUGUAAACCA | 44.9 | 82.8
UCCACUUACAUGUAAACCA | 50.2 | 71.1
UCCAGAAACAUGUAAACCA | 69.9 | 86.4
UCCAGACACAUGUAAACCA | 10.6 | 32.3
UCCAGAGACAUGUAAACCA | 46.1 | 72.5
UCCAGAUACAUGUAAACCA | 42.1 | 59.6
UCCAGCAACAUGUAAACCA | 20.7 | 66
UCCAGCCACAUGUAAACCA | 6.26 | 16.5
UCCAGCGACAUGUAAACCA | 28.6 | 57
UCCAGCUACAUGUAAACCA | 13.9 | 33.2
UCCAGGAACAUGUAAACCA | 36.7 | 71.2
UCCAGGCACAUGUAAACCA | 25.2 | 13.1
